About 400 (5.1%) of roughly 7,900 compounds showed an effect of 50% or more. Some of the results follow.
Target: Parkinson's disease protein 7 (PARK7/DJ1) (human, UniProt Q99497)
Experiment: primary screen, percent inhibition; read as competition with a fluorescent probe by fluorescence polarization; higher = more effect of the substance
Conditions: 100 µM
Method in brief: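 Fluorescence-polarization probe displacement (JYQ-107, 20 nM final, 2 h) after 2 h preincubation of PARK7 (0.2 μM final) with each fragment at 100 μM final. Read-out ex/em 480/520 nm; remaining activity derived from FP signal loss relative to reference controls.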

Sequence of Parkinson's disease protein 7 (PARK7/DJ1) (Q99497 whole entry, looked up): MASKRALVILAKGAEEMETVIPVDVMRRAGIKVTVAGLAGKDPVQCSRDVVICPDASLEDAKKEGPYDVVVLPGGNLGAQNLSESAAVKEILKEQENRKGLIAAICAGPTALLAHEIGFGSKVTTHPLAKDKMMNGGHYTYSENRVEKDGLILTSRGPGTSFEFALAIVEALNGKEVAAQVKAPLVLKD

Row | SMILES | Inhibition % [%]
1 | O=C(Oc1ccccc1)N1CCOCC1 | 1.63
2 | C=CC(=O)N1CCCCC1c1nc(-c2ncccn2)no1 (stereo not shown) | 4.26
3 | COc1ccc(Cl)cc1C(=O)NNC(=O)CCl | 29.8
4 | C=CC(=O)NC(C)C1CCC(F)CC1 (stereo not shown) | -3.49
5 | Cc1ccc(Cl)c(OCC2CO2)c1 (stereo not shown) | 7.81
6 | Cl.Cn1c(CCCl)nc2ccccc21 | 3.43
7 | Cc1nc2sccn2c1C#N | 12.3
8 | COC1(OC)CC2(C1)C(=O)NC2C(C)C (stereo not shown) | -0.768
9 | C#CC(=O)Nc1ccc(CC(=O)O)cc1 | 0.397
10 | N#CCCn1cc(C(=O)CCl)c2ccccc21 | 25.9
11 | O=C(CCl)N1CCC(C(=O)N2CCCCC2)CC1 | 18.3
12 | CC1(C)C(=O)NC1c1ccncc1 (stereo not shown) | 4.06
13 | CC(=CC#N)c1ccccc1 | 6.88
14 | Cn1c(=O)c2c(S)nc(C(C)(C)C)nc2n(C)c1=O | -0.398
15 | C#CC(=O)Nc1ccc(O)c(C(=O)O)c1 | 9.44
16 | CCCNc1ccccc1NC(=O)c1c[nH]c(C#N)c1 | 2.91
17 | C=CC(=O)N1CCCC1c1ncc(Br)cn1 (stereo not shown) | 10.2
18 | O=S(=O)(c1ccc(S)nc1)N1CCOCC1 | 28.6
19 | Cc1c(C#N)c(NC(=O)CCl)n(Cc2ccccc2)c1C | 25.5
20 | CC1(C)OB(c2ccc(Cn3ccnc3)cc2)OC1(C)C | 0.184
21 | Oc1cc(C2CC2)nc(S)n1 | 16.9
22 | CC1(C)OB(c2cccc(CN3CCCS3(=O)=O)c2)OC1(C)C | 4.68
23 | O=C(CCl)NC(c1ccccc1)c1cccs1 (stereo not shown) | 20.4
24 | CCOc1ccc(S(=O)(=O)n2cccn2)c(C)c1C | 2.55
25 | C=CC(=O)NC[C@H]1C[C@@H](OC)C1 | 9.78

Row | SMILES | Inhibition % [%]
26 | O=C(NC1CCOC2(CCSC2)C1)c1cccnc1S (stereo not shown) | 3.43
27 | Cc1nn(C)c(C)c1C=CC(=O)N1CCCCC1C (stereo not shown) | -1.08
28 | O=C(CCCl)N1CCN(c2ncccn2)CC1 | 3.8
29 | Cn1nc(-c2ccccc2)cc1B1OC(C)(C)C(C)(C)O1 | 16.2
30 | NC(=O)Cn1c(-c2ccccc2)noc1=O | 6.77
31 | C=CC(=O)NCc1nc(N(C)C)no1 | 2.57
32 | CC(C)N(C)S(=O)(=O)c1ccc(NC(=O)CCl)cc1 | 83.8
33 | O=C(CCl)Nc1ccccc1I | 12.2
34 | NS(=O)(=O)c1ccc(NC(=O)CCl)cc1 | 69.2
35 | C=CC(=O)Nc1ccc(N2CCCCC2)cn1 | 26.8
36 | C=CC(=O)N(C)Cc1oc2c(C)cccc2c1C | 4.58
37 | Cl.NCc1cccc(CN2C(=O)CSC2=O)c1 | 7.23
38 | C=CC(=O)N1Cc2cnn(-c3ccccc3)c2C1 | 6.47
39 | Cc1cc(C)c(S(=O)(=O)n2cccn2)cc1C | 2.55
40 | Cl.NC1CCCN(S(=O)(=O)C=Cc2cccc(Cl)c2)C1 (stereo not shown) | 4.64
41 | N#CC=CN1CCN(c2ccccn2)CC1 | 7.23
42 | CC(C)Cc1ncc(CNC(=O)c2cccnc2S)s1 | 10.6
43 | Cl.O=C(Oc1ccccc1)N1CCNCC1 | 4.3
44 | C[C@@H]1O[C@H]1c1cccc(Cl)c1 (racemic) | 3.87
45 | O=C(CCl)Nc1ccccc1Cc1ccccc1 | 7.34
46 | CCOC(=O)c1c(NC(=O)CCl)sc(C)c1C | 2.6
47 | CC1(C)OB(c2ccc3ccc(N)cc3c2)OC1(C)C | 86.8
48 | CC1CC(Sc2nnc(C(C)(C)C)o2)C(=O)O1 (stereo not shown) | 46.1
49 | OB(O)c1ccccc1CN1CCCC1 | 5.6
50 | C=CC(=O)N1CCC(COc2ccccc2)C1 (stereo not shown) | 11.5

Row | SMILES | Inhibition % [%]
51 | Cc1ccc(NS(=O)(=O)CCCS(=O)(=O)F)nc1 | 80.1
52 | C=CC(=O)N1CCOC(Cn2nc(C)nc2C)C1 (stereo not shown) | 17.3
53 | C=CC(=O)N1CCSCC1C1CCC1 (stereo not shown) | 10.3
54 | Cc1cccc(-n2cc(C(=O)CCl)nn2)c1 | 95.4
55 | Cc1cc(C#N)ccc1S(=O)(=O)OCC(F)(F)F | 10.4
56 | COc1cc(C=C(C#N)c2ccccn2)ccc1O | 24
57 | CC#CCCn1cc(C#N)nn1 | 1.89
58 | Cc1ccc(C(=O)Cn2cnc(C#N)n2)s1 | 8.98
59 | CC1(C)OB([C@@H]2C[C@H]2C(=O)O)OC1(C)C (racemic) | 8.39
60 | Cc1nnnn1-c1ccc(F)c(NC(=O)CCl)c1 | 4.03
61 | N#Cc1ncn(CC(=O)c2ccc3c(c2)CCC3)n1 | 1.26
62 | C=CC(=O)NC1CCCOCC1 (stereo not shown) | -1.46
63 | O=S(=O)(c1cc(Cl)ccc1Cl)n1cccn1 | 5.69
64 | COc1ccc(C=c2sc(=CC#N)n(C)c2=O)cc1 | 4.53
65 | C=CC(=O)NCC1CNC(=O)C1 (stereo not shown) | 24.1
66 | C=CC(=O)Nc1ccccc1OC | 0.453
67 | C=CC(=O)NCC1(CF)CCOCC1 | 9.48
68 | C=CC(=O)N1CCOCC2(CC2)C1 | 33.9
69 | C=CC(=O)NC1CC(OC)C1(C)C (stereo not shown) | -3.29
70 | N#CC(=Cc1ccc(OC(F)F)cc1)C(=O)N1CCCC1 | 13.2
71 | Cc1nn(C)c2ncc(NC(=O)CN3CCSC3=O)cc12 | 4.2
72 | N#Cc1cc(N)c2ccccc2n1 | 10.9
73 | Cc1cc(C=C(C#N)C(=O)O)c(C)n1C1CC1 | 8.28
74 | N#Cc1ccc2c(n1)CCCN2C(=O)[C@H]1CCCO1 | 3.86
75 | C=CC(=O)N(C)Cc1ccccc1N1CCCC1 | 4.01

Row | SMILES | Inhibition % [%]
76 | C=CCc1ccc(B2OC(C)(C)C(C)(C)O2)cc1 | 2.49
77 | Cc1ccc(B2OC(C)(C)C(C)(C)O2)cc1[N+](=O)[O-] | 3.85
78 | Cc1sc2nc(CS)[nH]c(=O)c2c1C | 13.9
79 | Cc1ccc(NS(C)(=O)=O)cc1B1OC(C)(C)C(C)(C)O1 | 1.38
80 | O=c1[nH]c(S)nc2[nH]ncc12 | 4.43
81 | O=C(CCl)N1CCN(C(=O)Nc2ccccc2)CC1 | 64.2
82 | COc1ccc(NC(=O)c2cccnc2S)cc1Cl | 2.9
83 | CC1(C)OB(C2CNC2)OC1(C)C.O=C(O)C(F)(F)F | 11.6
84 | N#Cc1ccc(NCCOc2ccccc2Cl)cn1 | 10.9
85 | Cc1nsc(N[C@@H]2COC(=O)C2)n1 | 5.93
86 | C=CC(=O)N1CCSC2COCCC21 (stereo not shown) | -2.53
87 | C=CC(=O)N1CCN(S(=O)(=O)C2CC2)CC1 | 5.47
88 | OB(O)c1ccc2c(c1)CCCC2 | 1.74
89 | CC1CC(Sc2nnnn2-c2ccccc2)C(=O)O1 (stereo not shown) | 3.51
90 | O=C(NCC1(O)CCc2ccccc21)c1cccnc1S (stereo not shown) | 29.7
91 | O=C(CSC(F)(F)F)Nc1cccc(S(=O)(=O)F)c1 | 99.8
92 | O=C(CCl)Nc1cc(-c2ccccc2)nn1-c1ccccc1 | 28.3
93 | CCCOc1ccc(S(=O)(=O)n2ccnc2)cc1 | 15
94 | O=C(NCCCl)C1CCCC1 | 3.24
95 | C=CC(=O)N1C[C@@H](C)O[C@@H](C)C1 | 9.55
96 | CC1CCN(C(=O)CC2OCCCO2)CC1n1ccnc1 (stereo not shown) | 9.65
97 | Cn1c(SC2CCOC2=O)nnc1-c1cccs1 (stereo not shown) | 3.52
98 | O=C(CCl)Nc1nc(-c2ccccc2)cs1 | 17.9
99 | CCOc1cc(C)c(Cl)cc1S(=O)(=O)n1cnc(C)c1 | 5.28
100 | Cc1ccc(C(=O)NNC(=O)CCl)cc1 | 5.44

Row | SMILES | Inhibition % [%]
101 | N#CN(CCN1CCCC1=O)c1ccc(F)c(Cl)c1 | -0.128
102 | O=C(C=Cc1ccnc2ccccc12)N1CCCSCC1 | 5.8
103 | CC1(C)OB(c2cnn(C(F)(F)F)c2)OC1(C)C | -0.114
104 | CN(C)c1nccc(CNCc2ccc(B(O)O)cc2)n1 | -0.514
105 | N#Cc1cc(Oc2ccc(F)cc2)ncn1 | 6.16
106 | CCC(NC(=O)c1cccnc1S)C1CCCO1 (stereo not shown) | 12.2
107 | COc1ccc(OC(F)F)c(C=C(C#N)C(N)=O)c1 | -1.14
108 | COc1ccc(C2CO2)cc1F (stereo not shown) | 21.2
109 | CCN(C(=O)CCl)C1CC1 | 5.24
110 | COc1cnc(C#N)cc1OC | 17
111 | N#Cc1ccc(NC(=O)CN2CCSC2=O)cc1 | 5.37
112 | C=CC(=O)N1CCc2c(Cl)cc(F)cc2C1 | 5.58
113 | C=CC(=O)N1CC(N2CCCC2=O)C1 | 5.93
114 | CN(CC(=O)Nc1cccc(F)c1)c1ccc(C#N)nc1 | 4
115 | COc1ccccc1CNC(=O)n1ccnc1 | 5.2
116 | Cc1ccc(C2CO2)c(C)c1 (stereo not shown) | 7.16
117 | N#Cc1nccnc1N1CCC(CSc2ccccc2)C1 (stereo not shown) | 3.14
118 | C=CC(=O)N1CCC(c2nccs2)C1 (stereo not shown) | 10
119 | COc1ccc(N2CCN(CC3CO3)CC2)cc1 (stereo not shown) | 12.9
120 | Cc1nc(C=CC(=O)N2CCN(C)CC2C)cs1 (stereo not shown) | 9.35
121 | C=CC(=O)NC1CCN(C2CCOC2)CC1 (stereo not shown) | 22
122 | C=CC(=O)N(C)Cc1c(C)nc2sc(C)cn12 | 18.9
123 | Cc1nc(Cn2c(-c3ccccc3C)noc2=O)no1 | 5.1
124 | C=CC(=O)NC(C)(C)c1cn(C)nn1 | 11.2
